89 molecules from PubChem BioAssay AID463173 (ICCB-Longwood Screening Facility, Harvard Medical School, 2010) can be followed below.

Each structure is given as a SMILES string. Screen size: about 52,000 compounds; about 4,300 (8.3%) were called active. Rule as the data show it: active = survival mostly below about 52% (no sharp cut-off); inactive = mostly above about 56%. The list shows a part of the results.

The subject of the experiment is DeltatarO mutant. The experiment can be described thus: S. aureus survival, RN4220 and DeltatarO strains – OD600, teichoic acid synthesis inhibitors, primary screen (AID 463173). Conditions: S. aureus RN4220 wild type/DeltatarO growth, OD600, 18 h, hits give low values, screened at 18.75 µg/mL (by protocol).
For the molecule `CC1Cc2ccccc2N1C(=O)CSc1nnc(CSc2ncccn2)n1C` (centres undefined), the survival was inactive: 111%.
As to `Cc1oc2ccc(O)c(CN3CCCC3)c2c1C(=O)Nc1ccc(C(C)C)cc1`, the survival was inactive: 68%.
Next, `C#CCOc1ccc(-c2nnc(Nc3ccc(NC(C)=O)cc3)c3ccccc23)cc1`: inactive: 60%.
Turning to `Cc1ccc(Cl)cc1N1CCN(C(=O)c2c(C)oc3ncnc(N4CCCCC4)c23)CC1`, the survival was active: -4%.
As for `CCc1cc(C(=O)Nc2sc(C)c(CC)c2C#N)no1`, the survival was active: 35%.
For the molecule `CN(C)c1ccc(-c2cc(-c3ccccc3)c(C#N)c(N)n2)cc1`, the survival was inactive: 105%.
The result for `CC1CCc2sc3ncnc(NCCCN(C)C)c3c2C1` (centres undefined) reads inactive: 117%.
For `CCc1ccc(CN2CCc3nc(N4CCN(c5ccccc5F)CC4)ncc3C2)cc1`, the survival is inactive: 54%.
Consider `CCCCOc1cccc(C(=O)Nc2cc(NC(=O)c3ccco3)ccc2OC)c1`, for which the survival was active: 23%.
With `COc1cccc(NC(=O)CCc2c(C)nc3nc(CNC(=O)c4cccc(F)c4)nn3c2C)c1`, the survival is inactive: 76%.
In the case of `Cc1ccc(CNC(=O)c2c(O)nc3cc(C)ccn3c2=O)cc1`, the survival is inactive: 76%.
Consider `Cc1ccc2c(c1)-c1c(cnc3cc(-c4ccc(F)cc4)nn13)CO2`, for which the survival was inactive: 72%.
Turning to `CCc1ccc(C2=C(C)C(N3CCC(C(=O)NCc4ccccc4)CC3)=NS2(=O)=O)cc1`, the survival was inactive: 89%.
The result for `COc1ccc(-c2cnc(C)o2)cc1S(=O)(=O)Nc1c(C)cc(C)cc1C` reads inactive: 71%; that for `CCC(CC)N1CCN(S(=O)(=O)CC)CC1`, inactive: 86%.
Next, `CC(c1ccccc1)n1cc2c(c1-c1ccccc1Br)c(=O)n(C)c(=O)n2C` (centres undefined): inactive: 82%; `CN(C)c1ccc(CN(CC2CCCO2)C(=O)c2ccc(Br)cc2)cc1` (centres undefined): inactive: 64%.
The result for `Cc1ccc2[nH]c3c(=O)n(CC(=O)N4CCN(c5cccc(C(F)(F)F)c5)CC4)ncc3c2c1` reads inactive: 78%; that for `CCOc1ccc(N2C(=O)N(Cc3c(F)cccc3Cl)c3ccccc3S2(=O)=O)cc1`, inactive: 91%.
Consider `CCCN1C(=O)/C(=c2\sc3n(c2=O)C(c2ccccc2)C(C(=O)OC)=C(C)N=3)c2ccccc21` (centres undefined), for which the survival is inactive: 74%.
Regarding `COc1cccc(CNC(=O)CN2C(=O)CSc3c2c(C)nn3-c2ccccc2)c1`, the survival is inactive: 94%.
Next, `Cc1ccc(-n2c(=O)c3ccc(C(=O)NCc4ccccc4Cl)cc3n(CC(=O)Nc3cccc(F)c3)c2=O)cc1`: inactive: 75%.
On to `Cc1ccc2[nH]c(CSc3nnc(COc4ccccc4C)n3C)cc(=O)c2c1`, for which the survival was inactive: 67%.
For the molecule `CCCCN(CCCC)CCNC(=O)c1cc(-c2cccnc2)nc2ccc(S(=O)(=O)N3CCC(C)CC3)cc12`, the survival was inactive: 96%.
Turning to `CCOc1ccc2nc(N3CCCC(C(=O)Nc4cccc(Cl)c4C)C3)sc2c1` (centres undefined), the survival was inactive: 65%.
As for `CCc1cc2c(cc3c(=O)n(CC(=O)N4CCCCC4)ncn32)s1`, the survival was inactive: 109%.
Next, `Cc1ccc(Cl)cc1NC(=O)CN1C(=O)COc2ccc(S(=O)(=O)N3CCOCC3)cc21`: inactive: 101%; `CCCCn1cc(S(=O)(=O)c2ccc(F)cc2)c(=O)c2ccccc21`: inactive: 94%; `COc1ccccc1CNC(=O)c1ccc(-c2nc(CS(=O)c3ccccc3)c(C)o2)cc1` (centres undefined): inactive: 89%.
The result for `Cc1cc(F)ccc1NC(=O)C1CCCN(S(=O)(=O)c2ccc3c(c2)CCCC(=O)N3)C1` (centres undefined) reads inactive: 65%.
The result for `Cc1cnc2c(c1SCC(=O)Nc1ccc(F)cc1F)c(=O)n(C)c(=O)n2C` reads inactive: 74%; that for `COc1ccc(Cn2c(SCC(N)=O)nc3c(sc4ccccc43)c2=O)cc1`, inactive: 88%.
As for `COc1ccc(S(=O)(=O)c2c(Nc3ccc(C)cc3)sc(C(=O)c3ccc4c(c3)OCO4)c2N)cc1`, the survival was inactive: 100%.
Take `CC1CCCCN1C(=O)CSc1nc(C2CC2)nc2ccccc12` (centres undefined): the survival was inactive: 82%.
The result for `COc1cc(OC)c(NC(=O)Cn2cnc3sc(C)c(S(=O)(=O)N4CCN(C)CC4)c3c2=O)cc1Cl` reads inactive: 157%; that for `Cc1ccc(S(=O)(=O)c2nc(-c3ccco3)oc2SCC(C)C)cc1`, active: 48%.
As to `COc1ccc2ncc3c(-c4ccc(C)c(C)c4)nn(CC(=O)NC4CCCCC4)c3c2c1`, the survival was inactive: 98%.
Take `O=C(COCc1cc(-c2cccs2)on1)Nc1ccc(OC(F)(F)F)cc1`: the survival is inactive: 106%.
Next, `CCCCOc1ccc(NC(=O)Cn2nnnc2-c2ccccc2F)cc1`: inactive: 77%.
Next, `Cc1cc2c(cc1C)NC(CC(=O)Nc1ccccc1SC(F)(F)F)C(=O)N2` (centres undefined): inactive: 81%; `COC(=O)NCc1c(C)nn(-c2ccccc2)c1-n1cccc1`: inactive: 96%.
The result for `COc1ccc(CNC(=O)c2cc3c(s2)-c2c(C)cccc2OC3)cc1` reads inactive: 87%.
In the case of `CCOC(=O)c1oc2c(c1C)-c1nn(Cc3ccccc3Cl)cc1CC2`, the survival is active: 38%.
The result for `c1ccc(CN2CCCC2)nc1` reads inactive: 91%; that for `CCc1ccccc1NC(=O)CN1C(=O)c2cccnc2Oc2ccc(Cl)cc21`, inactive: 104%; that for `CCOc1ccc(Br)cc1CNCCSc1nnnn1-c1ccccc1`, active: 23%.
The result for `CCc1ccc(NC(=O)c2nn(-c3ccc(C)cc3)c(=O)n(C)c2=O)cc1` reads inactive: 77%.
On to `CC(C)(C)OC(=O)N1CCC(c2c(C(=O)Nc3ccc4c(c3)OCCO4)cnn2-c2ccccc2)CC1`, for which the survival was inactive: 96%.
Next, `c1ccc2c3c([nH]c2c1)-c1nonc1CC3`: inactive: 85%; `CC1CCCC(C)N1C(=O)c1cc2sccc2n1Cc1ccc(F)cc1` (centres undefined): inactive: 86%; `COc1ccc(CNc2cc(-c3ccc(OC)cc3)nc3nncn23)cc1`: inactive: 61%.
With `Cc1ccc(NC(=O)Cn2c(=O)n(CCC(=O)NCc3ccc4c(c3)OCO4)c(=O)c3sccc32)c(C)c1`, the survival is active: 87%.
The result for `Cn1c(=O)n(-c2cccc(Cl)c2)c(=O)c2sc3ccccc3c21` reads inactive: 74%.
With `Cc1cc(NC(=O)Cn2nc(C)n3cccc3c2=O)ccc1Br`, the survival was inactive: 88%.
Turning to `CCOC(=O)N1CCC2(CC1)OC(=O)C(C)=C2C(=O)NCc1cccc(OC)c1`, the survival was inactive: 135%.
Next, `COc1ccc(NC(=O)CC2C(=O)N(c3ccc(C)cc3)C(=O)N2Cc2cccnc2)cc1` (centres undefined): inactive: 102%; `CNC(=O)c1sc2ncccc2c1-n1cccc1`: inactive: 124%; `CCCS(=O)(=O)N1CC(=O)N(c2ccccc2C)C(C)(C(=O)NC2CCCC2)C1` (centres undefined): inactive: 73%.
Next, `Cc1cccc(-n2ncc(C(=O)NCc3ccccn3)c2C2CCN(C(=O)OC(C)(C)C)CC2)c1`: inactive: 83%; `CCCCN1C(=O)CN(C2CCCCC2)C(=O)C1c1ccc(OC(C)C)c(OC)c1` (centres undefined): inactive: 91%.
As to `O=C(CN1CCCCC1)N/N=C/c1ccc(Cl)cc1`, the survival was inactive: 72%.
For `CCN1CCN(Cc2c(O)ccc3c(C)c(-c4ccccc4)c(=O)oc23)CC1`, the survival is inactive: 78%.
Next, `COc1ccc2cc(CN(CC3COCCO3)S(=O)(=O)c3c(C)cc(C)cc3C)c(=O)[nH]c2c1` (centres undefined): inactive: 72%.
With `Cc1cccc(NC(=O)c2oc3ccccc3c2NC(=O)c2cc(=O)c3cc(Cl)ccc3o2)c1`, the survival is active: 43%.
The result for `COc1ccc(C)cc1NC(=O)CSc1ccc(-c2ccccn2)nn1` reads inactive: 28%; that for `COc1ccc(CNC(=O)C2CCCN2)cc1OC` (centres undefined), inactive: 70%; that for `COc1ccccc1C(=O)Nc1c(C(=O)N(C)c2ccccc2)sc2nc(C)cc(C)c12`, inactive: 58%.
In the case of `O=C1CCCN1C(=O)CCC(=O)N1CCCC1=O`, the survival was inactive: 100%.
Next, `CCOC(=O)c1c(C(F)(F)F)cc(-c2ccccc2)nc1C`: inactive: 98%; `CCOc1ccc(C(=O)Nc2cc(-c3cn4cccnc4n3)ccc2C)cc1OCC`: inactive: 62%; `COc1ccc(CCNC(=O)c2c(C)oc3ncn(CC(C)C)c(=O)c23)cc1OC`: inactive: 81%.
The result for `CCn1cc(C(=O)NCCc2ccc(C)cc2)c(=O)c2cc(S(=O)(=O)N3CCCCC3)ccc21` reads inactive: 122%.
Turning to `Cc1cc(C)cc(NC(=O)C2CCC(CNS(=O)(=O)c3ccc4c(c3)C(C)(C)C(=O)N4C)CC2)c1` (centres undefined), the survival is inactive: 102%.
The result for `Cn1c(=O)c2sccc2n2c(CCC(=O)NCc3ccccc3Cl)nnc12` reads inactive: 185%.
As to `COc1ccc(CNC(=O)C2CCN(C(=O)N3CC(C)Oc4ccc(C)cc43)CC2)cc1` (centres undefined), the survival was inactive: 105%.
The result for `CN(Cc1ccccc1)C(=O)C1CCN(S(=O)(=O)c2ccc3nc4c(c(C(=O)O)c3c2)CCCC4)CC1` reads inactive: 66%.
With `O=C(CCS(=O)(=O)c1cc(Br)cc2c1N(C(=O)C1CC1)CC2)Nc1ccc(C(F)(F)F)cc1`, the survival was inactive: 93%.
On to `O=C(NC1CCCC1)C1C2C=CC(C2)C1C(=O)N1CCOCC1` (centres undefined), for which the survival is inactive: 102%.
`COc1ccc(-c2nc(Cn3c(SCc4ccccc4F)nc4ccncc43)c(C)o2)cc1OC`: the survival is inactive: 62%.
Regarding `Cc1ccc(S(=O)(=O)Nc2nc3n(n2)C(c2ccccc2Cl)C=C(c2ccccc2)N3)cc1` (centres undefined), the survival is active: 37%.
Take `COc1cccc(C(=O)Nc2ccccc2-c2nnc(-c3cc(OC)ccc3Br)o2)c1`: the survival is inactive: 79%.
Next, `O=C(Cc1ccc(Cl)cc1)NCC(c1cccs1)S(=O)(=O)c1ccc(F)cc1` (centres undefined): inactive: 95%.
For `Cn1cnc(S(=O)(=O)N2CCC(C(=O)NCc3ccc(F)cc3)CC2)c1`, the survival was inactive: 57%.
In the case of `COc1ccc(C2=C(C)C(=O)N(Cc3ccc(C(=O)Nc4cc(C)ccc4C)cc3)S2(=O)=O)cc1`, the survival was inactive: 77%.
On to `Cc1cccc(N2CCN(CCCNC(=O)c3nnc(Cc4c(F)cccc4Cl)o3)CC2C)c1` (centres undefined), for which the survival was inactive: 74%.
With `O=C(Cn1c(=O)n(-c2ccc(Cl)cc2)c(=O)c2oc3ccccc3c21)Nc1ccccc1`, the survival is inactive: 99%.
With `CCc1ccc2[nH]c(=O)c(C(c3nnnn3C3CCCCC3)N3CCCC3)cc2c1` (centres undefined), the survival was inactive: 90%.
In the case of `CC1CCN(c2ncnc3c2nnn3C)CC1`, the survival was inactive: 92%.
The result for `CCN(CC)S(=O)(=O)c1nnc(NC(=O)c2ccc(C(C)C)cc2)s1` reads active: 44%.
